# Laboratory results as given in the supplement of paper PMC3334620.
# In all, about 33,000 sequences were measured (“E-score (-0.5 to 0.5)”: median about -0.054, highest 2% from about 0.39 on). This is one part of the list.
# Target: Ylr278c (UniProt Q05854)
# Assay: PBM E-score (8-mer binding enrichment) (E-score (-0.5 to 0.5)); higher = stronger / more preferred TF binding; most listed sequences are background and not binding sites
# Settings: protein concentration: 200 nM; construct: GST-DNA-binding domain
# Method in brief: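 The E-score, a modified Wilcoxon-Mann-Whitney statistic, was computed by the Universal PBM Analysis Suite for every ungapped eight-base word pooled with its reverse complement. Scans behind it were normalised with masliner after bound GST-tagged yeast transcription factors were detected with fluorescent anti-GST. The proteins, at about 100-200 nM, had been applied to universal all-10-mer Agilent arrays made double-stranded by primer extension.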
row,Sequence,PBM E-score
1,GGTATCAC,-0.115
2,GTACAGCA,-0.127
3,ATACACAT,-0.212
4,ACAGATAC,-0.00303
5,AGGTTTTC,-0.0425
6,AGCCTAGG,-0.138
7,AATTCGGT,0.185
8,ACCTTAAA,-0.022
9,GACGGTTA,-0.00588
10,GAATAATA,0.104
11,ACAAGGAT,-0.204
12,CTACGTAC,-0.091
13,ACGGAACC,0.213
14,CTGGTGAA,-0.198
15,CATTATCG,-0.0764
16,ATCGGTCA,0.0639
17,AAAGCGAC,0.031
18,ATAAAAAG,0.093
19,GGGAATAA,0.261
20,CCATCGCC,0.075
21,CACGGTGC,-0.115
22,ACGACCCG,-0.0338
23,ACGGGGGA,0.0207
24,CCTATACA,-0.267

row,Sequence,PBM E-score
1,CGTCCCCA,0.0148
2,GGATTTGA,0.107
3,CTCTGCAC,-0.0702
4,AAAGCACT,0.0134
5,AATACGCC,0.223
6,CCGCTATC,0.217
7,CCCAAACC,0.165
8,CAATAATA,0.0542
9,AAGTGGAA,-0.169
10,CAGCCTTA,-0.181
11,CGAACCTC,0.00904
12,ACTGGGCC,-0.0331
13,AACGGTGC,-0.0596
14,AGCACCGC,0.121
15,AGCTGAAG,-0.171
16,TCATTCAA,-0.146
17,GGAGTGAA,0.193
18,GTGTCGGA,0.417
19,TAGAAGCA,-0.355
20,AGGTGTTG,-0.061
21,AACCATAA,-0.102
22,ACCGCACC,0.285
23,CTGAGGGA,-0.205
24,GCAGTTTA,-0.148

row,Sequence,PBM E-score
1,GTACGCAA,-0.169
2,CCCGGCAC,0.088
3,CCCAAGTA,-0.129
4,CTAGCAGA,-0.195
5,AATCAAGG,0.104
6,GGGACCTA,0.0298
7,CGCACACG,0.124
8,AGAGTCTA,-0.358
9,ATTTAAAA,0.114
10,GTCAAGAA,-0.137
11,ATTGTGAC,-0.137
12,AGGCGCAT,0.0965
13,AGTCACGG,0.188
14,CTAATTCC,0.277
15,CACACGCC,0.107
16,GTCTTCTA,-0.114
17,CGCTTTGC,0.122
18,AGAAAGGG,-0.247
19,GGCTAATA,0.113
20,CAAGCGCG,0.0856
21,AGGAGGTG,-0.208
22,ACAAGCTG,-0.177
23,CGAGATCC,0.305
24,CACCTAAA,-0.107

row,Sequence,PBM E-score
1,AAGCAGTA,-0.234
2,CATGGTCA,-0.0944
3,GCGTAGCC,-0.101
4,ATCGAGAA,-0.166
5,ACAATGGC,-0.074
6,GTACTGAA,-0.0131
7,CTGGCCGA,0.0576
8,CTGGCAGC,-0.145
9,ACGCGTCC,-0.0394
10,AGCATTTA,-0.0809
11,CGGATCCC,0.402
12,AGACTTGC,-0.117
13,ACGTCCCG,0.164
14,GATTACCC,0.162
15,GATAGGCC,-0.0314
16,CAAAATCG,0.00929
17,GACCCGAA,0.133
18,CCTAAGGC,-0.203
19,ACCATGCA,-0.029
20,CAATCATG,-0.214
21,GATTCGCA,0.129
22,GCGAGACA,-0.246
